# According to PubChem BioAssay AID485344 (National Center for Advancing Translational Sciences (NCATS), 2010):
# Out of some 340,000 compounds screened, about 6,900 (2%) were called active. No stated cut-off is given here; in the data, active means inhibition above about 30%; inactive means below that, where a call was filed. The list shows a part of the results, in another mix than the full data. Where no call is shown, the source filed none.
# Biological target: D(2) dopamine receptor (Homo sapiens) (UniProt P14416)
# Assay: HTS Assay for Allosteric Antagonists of the Human D2 Dopamine Receptor: Primary Screen for Antagonists; further: 0% is about no effect
# Conditions: HEK293 TREx D2 cells, calcium flux, dopamine EC80; at 10 µM; stronger effect = higher value
# In short: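 HEK293 T-REx D2 cells, tet-induced, calcium dye no-wash. Cpd pintool add, 180 s kinetic, then EC80 DA, 180 s kinetic. Ca flux read.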
# Chain of UniProt P14416 (P14416 whole entry, looked up): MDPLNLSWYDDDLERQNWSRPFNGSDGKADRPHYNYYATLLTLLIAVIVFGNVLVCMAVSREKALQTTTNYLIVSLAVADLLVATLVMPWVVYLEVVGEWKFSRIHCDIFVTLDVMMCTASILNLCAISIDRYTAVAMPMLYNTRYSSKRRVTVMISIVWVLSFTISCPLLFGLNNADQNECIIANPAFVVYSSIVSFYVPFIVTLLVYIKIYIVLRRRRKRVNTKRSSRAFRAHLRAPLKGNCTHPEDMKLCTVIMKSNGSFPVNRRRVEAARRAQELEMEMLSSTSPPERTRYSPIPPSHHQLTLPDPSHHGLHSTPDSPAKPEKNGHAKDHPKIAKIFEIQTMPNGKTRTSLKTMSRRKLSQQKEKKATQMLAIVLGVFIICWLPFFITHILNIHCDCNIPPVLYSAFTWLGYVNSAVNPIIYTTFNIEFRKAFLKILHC
row,Structure (SMILES),inhibition
1,O=C(Cn1c(=O)n(Cc2ccccc2)c(=O)c2oc3ccccc3c21)Nc1ccc(Cl)cc1,-1.54%
2,Cc1nc(-c2ccc(F)cc2)sc1CCNC(=O)c1ccco1,1.71%
3,Cc1cc(C)cc(NC(=O)Cn2nnc(C(=O)Nc3cc(C)cc(C)c3)c2N)c1,9.64%
4,CCc1ccc(CNC(=O)CCN2C(=O)COc3ccccc32)cc1,2.64%
5,CCOC(=O)c1cc(-c2ccccc2)n(CCCC(=O)Nc2cccc(Cl)c2C)c1C,-3.13%
6,CSc1ccc(CCNC(=O)C(C)n2c(C)c3cnn(-c4ccccc4)c(=O)c3c2C)cc1 (centres undefined),0.776%
7,COc1cc(OC)cc(C(=O)Nc2c(C(=O)Nc3ccc(F)cc3)oc3ccccc23)c1,6.92%
8,COc1cc(NC(=O)Cn2c(C)cc3ccccc3c2=O)cc(OC)c1OC,-8.29%
9,COCC1CCN(Cc2cn(-c3ccccc3F)nc2-c2cc(C)sc2C)CC1,active: 73.5%
10,O=[N+]([O-])c1ccc2ncnc(N3CCN(Cc4ccc5c(c4)OCO5)CC3)c2c1,active: 101%
11,Cc1ccc(-c2c3c(=O)n(C)c(=O)n(C)c3c3c(C(F)(F)F)nc4ccccc4n23)cc1,18.1%
12,Cc1c(NC(=O)c2sc3c([N+](=O)[O-])cccc3c2Cl)cccc1-c1nc2ccccc2o1,2.27%
13,COc1cc(CNC(=O)c2cc3n(n2)CCCN(Cc2ccc(C)cc2)C3=O)cc(OC)c1OC,-13.4%
14,CS(=O)(=O)N(CC(=O)Nc1cccc([N+](=O)[O-])c1)c1ccccc1F,active: 44.4%
15,CCS(=O)(=O)N1CC(=O)N(c2cccc(C)c2C)C(C)(C(=O)NC2CCCCC2)C1 (centres undefined),9.87%
16,CCOC(=O)c1[nH]c(C)c(CCC(=O)Nc2ccc(N(CC)CC)cc2C)c1C,-1.82%
17,CC(C)c1ccc(NC(=O)c2ccc(NC(=O)CCS(=O)(=O)c3cccs3)cc2)cc1,3.36%
18,Cc1ccc(CCNc2nc3c(S(=O)(=O)c4ccc(C)cc4)nnn3c3ccsc23)cc1,-3.05%
19,CC(=O)Oc1c(Br)cc(N(C(C)=O)S(=O)(=O)c2ccccc2)c2ccccc12,active: 32.9%
20,Cc1ccc(-n2ncc3c(NCCCc4ccccc4)ncnc32)cc1C,-15.5%
21,Cn1c(CCN2CCN(c3ccccn3)CC2)nc2cc(NC(=O)COc3ccc([N+](=O)[O-])cc3)ccc21,active: 30.8%
22,CCc1ccc2occ(CC(=O)NCc3ccccc3)c2c1,13.5%
23,CCOc1ccccc1C(=O)Nc1cc2c(cc1C)n(C)c(=O)c(=O)n2C,1.65%
24,COc1ccc(-c2nc3sc(CCNC(=O)c4ccc(C(C)(C)C)cc4)c(C)n3n2)cc1,27.8%

row,Structure (SMILES),inhibition
1,CCOC(=O)C1CCC(CN(Cc2ccc(OC)cc2)S(=O)(=O)c2ccc(F)c(C(=O)Nc3cc(Cl)ccc3OC)c2)CC1 (centres undefined),-11%
2,Cn1cc(-c2cc3n(n2)CCC(=O)N3CCCC(=O)NCc2ccccc2)c2ccccc21,3.03%
3,COc1ccc(CNC(=O)CN(C)S(=O)(=O)c2ccc3[nH]c4c(c3c2)CCCC4)cc1,6.57%
4,CCN(CC)CCNC(=O)Cn1cnc2sc(C)c(S(=O)(=O)N3CCC(C)CC3)c2c1=O,-4.7%
5,COc1ccc(NC(=O)Cc2ccc(NC(=O)N3CCCCc4ccccc43)cc2)c(OC)c1,21.6%
6,CC(C)c1ccc(NC(=O)c2cc(S(=O)(=O)NCCC3=CCCCC3)ccc2F)cc1,2.83%
7,O=C(N/N=C/c1cccc2ccccc12)c1cc2ccccc2o1,active: 52%
8,CC(C)c1nn2c(=O)cc(COC(=O)c3ccc4c(c3)OCO4)nc2s1,-16.5%
9,COC(=O)c1ccc(OCC2c3cc(OC)c(OC)cc3CCN2C(=O)Cc2ccc(OC)c(OC)c2)cc1 (centres undefined),3.9%
10,Cc1cn2c(=O)c(S(=O)(=O)NCCc3ccc(Cl)cc3)c(C)nc2s1,10.7%
11,CC(=O)N1CCc2c(sc3c2c(=O)n(-c2ccccc2)c(=O)n3CC(=O)c2ccc(F)cc2)C1,-14.2%
12,COc1cc(C(=O)Nc2nnc(CC(C)(C)C)s2)cc(OC)c1OC,-14.9%
13,CCOC(=O)c1sc(NC(=O)Nc2ccc(Cl)cc2)cc1C,active: 38%
14,COc1ccc(OCCCn2c(C)nc3cc(C)c(C)cc32)cc1,6.99%
15,Cc1oc(-c2ccccc2F)nc1CS(=O)(=O)CC(=O)NCCCN1CC(C)CC(C)C1 (centres undefined),active: 47.8%
16,COc1cccc2c1cc1c(=O)n(CC(=O)NCCCN3CCN(C)CC3)nc(C)n12,7.79%
17,CCC1=C(c2ccc(C)cc2)S(=O)(=O)N=C1N1CCC(C(=O)NCCc2cccc(OC)c2)CC1,12.6%
18,Cn1nnnc1SCCCNCc1cc(Cl)ccc1OCc1ccccc1,9.67%
19,CC(OC(=O)c1ccc(NC(=O)CC#N)cc1)C(=O)NCCC1=CCCCC1 (centres undefined),active: 38.3%
20,O=C1Nc2c(c(=O)[nH]c(=O)n2-c2ccc(F)cc2)C1(NS(=O)(=O)c1ccc(Cl)cc1)C(F)(F)F (centres undefined),-14.5%
21,COc1ccc(C2=Nc3ccccc3N(CC(=O)Nc3cccc(C(C)=O)c3)C(=O)C2)cc1,8.77%
22,COc1ccc(CNS(=O)(=O)c2csc(C(N)=O)c2)cc1OC,-3.64%
23,Cc1cn2c(=O)cc(COC(=O)c3ccc(NC(=O)c4ccc(C(C)(C)C)cc4)cc3)nc2s1,-6.27%
24,CCOC(=O)c1ccc(NC(=O)C(CC)Sc2nncn3c2cc2oc(C)cc23)cc1 (centres undefined),8.21%

row,Structure (SMILES),inhibition
1,CCC(C)c1ccccc1NC(=O)COC(=O)c1ccc2[nH]c3c(c2c1)CCCC3 (centres undefined),active: 70.5%
2,O=C(N/N=C/C(Br)=C/c1ccccc1)c1ccc([N+](=O)[O-])cc1,active: 39.1%
3,CCCCNc1nc2c(-c3cccc(Br)c3)nnn2c2ccccc12,-20.1%
4,CC1CCCCC1NC(=O)CO/N=C/c1ccc(OC(F)F)cc1 (centres undefined),active: 34.1%
5,COc1cc([N+](=O)[O-])ccc1NC(=O)N1CCC2(CC1)Nc1cc(F)ccc1-n1cccc12,28.4%
6,CC1CCN(c2nc3c(S(=O)(=O)c4cccc(Cl)c4)nnn3c3ccsc23)CC1,-5.32%
7,Cc1ccc(N2CCN(C(=O)CCS(=O)(=O)c3cc4c(cc3Cl)NC(=O)CO4)CC2)c(C)c1,16.7%
8,Cc1ccc(C2C(=O)N(C3CCCCCC3)CC(=O)N2CCC2=CCCCC2)cc1 (centres undefined),15.1%
9,CCOC(=O)c1c(-c2ccc(OC)cc2)oc2ccc(OCc3ccc(F)cc3F)cc12,-8.02%
10,CN(C)c1ccc(CNC(=O)C2CCN(C(=O)c3ccc(-n4ccc5ccccc54)s3)CC2)cc1,-14.7%
11,Cc1ccc(NC(=O)N2CCC(CN3CCCCC3)CC2)c(Cl)c1,15.2%
12,CCOC(=O)c1cc(-c2ccc(OC)cc2)n(CCC(=O)NCCc2ccc(OCC)c(OCC)c2)c1C,-6.14%
13,CCn1cc(/C=C(\NC(=O)c2ccc(OC)c(OC)c2)C(=O)NCCCn2ccnc2)c2ccccc21,-1.22%
14,Cc1nc2sccn2c(=O)c1S(=O)(=O)Nc1cccc(Cl)c1C,10.8%
15,CCCc1cc(=O)n2nc(N3CCC(C(=O)Nc4c(F)c(F)c(F)c(F)c4F)CC3)sc2n1,active: 37.5%
16,CC(=O)c1ccc(N2CCN(S(=O)(=O)c3ccc(-c4cnc(C5CC5)o4)cc3)CC2)cc1,16.4%
17,Cc1ccc(OCC(=O)Nc2ccc(C(=O)OCc3cc(=O)n4ccsc4n3)cc2)cc1C,-5.62%
18,COc1ccc(Oc2ncnc3c2oc2ccccc23)cc1,-11.8%
19,CCOC(=O)c1ccc(NC(=O)C2CCCN(c3cnccn3)C2)cc1 (centres undefined),9.78%
20,O=C(COC(=O)c1ccc([N+](=O)[O-])o1)NC1CCS(=O)(=O)C1 (centres undefined),active: 33.4%
21,CC(=O)N1c2ccccc2CC1C(=O)N1CCN(c2ccccc2F)CC1 (centres undefined),2.74%
22,CCOC(=O)C1=C(CNCc2ccc(Cl)cc2)NC(=O)NC1c1ccccc1 (centres undefined),-16.8%
23,COc1cc(NC(=O)Cn2cc(S(=O)(=O)N3CCC(C)CC3)c3ccccc3c2=O)cc(OC)c1OC,7.75%
24,CCCC(C(=O)Nc1cc(C)c(Cl)cc1OC)N1Cc2ccccc2C1=O (centres undefined),1.52%

row,Structure (SMILES),inhibition
1,COc1cccc(/C=C(\C#N)c2nc3ccccc3c(=O)[nH]2)c1OC,13.9%
2,CCOc1ccc(Nc2ncnc3onc(-c4ccc(Cl)cc4)c23)cc1,-9.36%
3,Cc1ccc(OCC(O)CN2CCN(c3ccccn3)CC2)c(C)c1 (centres undefined),active: 64.5%
4,COc1cn(CC(=O)Nc2cccc(C)c2)c(CN2CCCCC2)cc1=O,-13.4%
5,O=C1NC2(CCOc3ccccc32)C(=O)N1CC(=O)N(Cc1ccccc1)C1CCS(=O)(=O)C1 (centres undefined),active: 40.4%
6,Cc1ccc(Cl)c(OCCN2CCCC(C)C2)c1 (centres undefined),active: 53.1%
7,Fc1cccc2sc(Nc3nnc(-c4ccccc4)o3)nc12,active: 43.1%
8,Cc1cc(C)cc(OC(C)C(=O)Nc2nc3c(s2)CCCC3)c1 (centres undefined),16.9%
9,COc1ccc(NC(=O)c2ccco2)cc1NC(=O)c1ccc(OC(C)C)cc1,16.9%
10,O=C(CSc1nc2ccccc2n1Cc1ccccc1)NCc1ccccc1,-13.5%
11,CC(C)CC(NC(=O)C1CCC(C)CC1)C(=O)OCC(=O)c1ccc(Cl)cc1 (centres undefined),11.8%
12,CSc1oc(-c2ccc(F)cc2)nc1S(=O)(=O)c1ccc(Br)cc1,-4.61%
13,O=C(N/N=C/c1ccsc1)c1ccccn1,active: 39.1%
14,Cc1cccc(C)c1NC(=S)NCCc1ccc(O)c(O)c1,active: 67.3%
15,Cc1ccc(N2CC(NC(=O)C3CCCC3)CC2=O)cc1 (centres undefined),4.11%
16,CC(C)CCNC(=O)c1ccc(NC(=O)N2CCCCc3ccccc32)cc1,14.8%
17,COc1cccc(N2CCN(C(=O)Cn3ncc4c3-c3ccccc3OC4)CC2)c1,9.25%
18,Cc1ccc(C(=O)c2cn(CC(=O)Nc3ccc4c(c3)OCCO4)c3nc(C)ccc3c2=O)cc1,-2.66%
19,CCOc1ccc(Nc2c(S(=O)(=O)c3ccccc3)cnc3ccc(CC)cc23)cc1,-20.2%
20,CCC1COCCS(=O)(=O)N1Cc1cccc(Cl)c1 (centres undefined),active: 47.1%
21,CCCCNC(=O)CSc1nc2ccccc2nc1Cc1ccccc1,15.6%
22,Cc1cccc(NC(=O)CCS(=O)(=O)c2cc(Br)cc3c2N(C(=O)C2CC2)CC3)c1C,7.33%
